# Out of some 200,000 compounds screened, about 10 (0.005%) were called active. The inconclusive results got no clear call from the source; some entries with a clear call stand among them for comparison. The call rests on the fitted dose curve; in most records, active means well fitted inhibition curve with a large enough effect; inconclusive means small, poorly fitted or top-dose-only effect, or effect the other way, or another doubt; inactive means no such curve, though single readings can be large or run the other way. Potencies of inconclusive entries are left out as doubtful fits.
# Target: Lysosomal alpha-glucosidase (Homo sapiens) (UniProt P10253)
# Assay: qHTS Assay for Inhibitors of Human alpha-Glucosidase as a Potential Chaperone Treatment of Pompe Disease;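 on activity change, negative = inhibition: plate controls were uninhibited enzyme wells for no effect and no-enzyme background for full effect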
# Conditions: purified human GAA, 4-MU-alpha-glucoside fluorescence; activity change, negative = inhibition: at 76.9 µM (top of the series) unless noted
# In short: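 Enzyme (4 nM final) mixed with compound (up to 77 uM), then 4-MU-alpha-D-pyranoside (400 uM final) added; 20 min at room temperature, pH 5.0. Reaction stopped at pH 10, fluorescence read, AC50 derived by Hill fit.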
# Potency means the concentration at half of the fitted maximal effect; tags describe the fitted curve by direction and shape.
Structure (SMILES),"activity change, negative = inhibition",Potency
CCN(CC)C(=O)N1CCN(C(=O)N(CC)CC)CC1,inconclusive: 15.2% [activator],–
Cc1cc(C)c2ccc3c(C)c(C)n(C)c3c2n1,–,"inconclusive [activator, single point]"
CCN(CC)C(=S)NC(=O)Cc1ccccc1,inconclusive: 22.1% [activator],–
Cc1noc(C)c1COC(=O)c1ccc(S(=O)(=O)N2CCCCC2)cc1,inconclusive: -17.2% [inhibitor],–
CN(C)CCN1C(=O)C2C3C=CC(C3)C2C1=O (stereo not given),inconclusive: 17.2% [activator],–
COc1ccc(CC2(CO)CCN(S(=O)(=O)c3c(C)nn(C)c3Cl)CC2)cc1,–,"inconclusive [inhibitor, single point]"
COc1ccc(C(=O)NCc2cccnc2)cc1S(=O)(=O)N1CCCc2ccccc21,–,"inconclusive [inhibitor, single point]"
O=C(Nc1ccccc1Cl)c1ccc2c(c1)N(Cc1ccc(F)cc1)C(=O)CS2=O (stereo not given),–,"inconclusive [inhibitor, partial curve]"
CC1CCN(C(=O)c2ccc(-n3cnnn3)cc2)CC1,inconclusive: -15.9% [inhibitor],–
COc1ccc(CNC(=O)COC(=O)c2ccccn2)cc1,–,inactive
COc1cccc(NCCC(=O)c2cccc([N+](=O)[O-])c2)c1,–,inactive
CC(C)(C)c1ccc(OCC(=O)NNC(=S)NC(=O)c2ccccc2[N+](=O)[O-])c(Br)c1,–,"inconclusive [inhibitor, full curve]"
CCOc1ccc(NC(=O)c2ccccn2)cc1,–,inactive
O=C(Nc1ccc(Cl)cc1)N1CCCN(c2ccc(C(F)(F)F)cc2[N+](=O)[O-])CC1,–,"inconclusive [inhibitor, full curve, poor fit]"
Cc1ccccc1/C(N)=N/OC(=O)N1c2ccccc2Sc2ccccc21,–,"inconclusive [inhibitor, full curve, poor fit]"
C=CCNC(=S)N(Cc1ccccc1)Cc1ccccc1,–,"inconclusive [inhibitor, single point]"
O=C(NCCN1C(=O)S/C(=C\c2ccc(Cl)c(Cl)c2)C1=O)c1ccc2c(c1)C(=O)N(Cc1ccncc1)C2=O,inconclusive: 12.2% [activator],–
COc1cc(OC)c(C2=NOC(C(=O)N3CCCc4ccccc43)C2)cc1Cl (stereo not given),–,"inconclusive [inhibitor, single point]"
Cn1c(=O)c2c(ncn2CC(=O)OCC(=O)Nc2ccccc2)n(C)c1=O,inconclusive: -17.1% [inhibitor],–
CCOc1nc(C#N)nc(N2CCCCC2)n1,–,"inconclusive [inhibitor, full curve, poor fit]"
CC1(C)CC(/C=C/c2ccccc2)=Nc2ccccc2N1,–,"inconclusive [inhibitor, full curve, poor fit]"
O=C(Nc1nc2ccccc2[nH]1)c1cccc(S(=O)(=O)N2CCOCC2)c1,–,"inconclusive [inhibitor, partial curve]"

Structure (SMILES),"activity change, negative = inhibition",Potency
CCN(CC)CCNC(=O)c1ccc2c(=O)n(CCc3ccccc3)c(=O)[nH]c2c1,–,"inconclusive [activator, partial curve]"
COc1ccc(CNCCNC(=O)c2cccs2)cc1OC,–,"inconclusive [inhibitor, single point]"
CCC(=O)Nc1ccc(N2CCN(C(=O)c3cccs3)CC2)cc1,inconclusive: 10.9% [activator],–
CC(C)C(c1nnnn1Cc1ccc2c(c1)OCO2)N1CCN(C)CC1 (stereo not given),–,"inconclusive [inhibitor, single point]"
Cc1cc(Cl)cc2c1NC(=O)[C@]21[C@@H]2C(=O)N(Cc3ccccc3)C(=O)[C@@H]2[C@@H]2CCCN21,–,"inconclusive [inhibitor, partial curve]"
Cc1oc2ccc(O)cc2c1C(=O)OC(C)C,–,"inconclusive [inhibitor, single point]"
Cc1ccc(C2=Nc3ccccc3N=C(c3ccco3)C2)c(O)c1,–,"inconclusive [inhibitor, full curve, poor fit]"
CCCn1nnc(NC(=O)c2ccc(-c3cccc(Cl)c3)o2)n1,–,inactive
CCCCCn1c(SCC(=O)OC)nc2c1c(=O)[nH]c(=O)n2C,–,"inconclusive [inhibitor, partial curve]"
C=CCn1c(N)c(C(=O)OC(C)(C)C)c2nc3ccccc3nc21,–,"inconclusive [activator, partial curve]"
Cc1ccccc1S(=O)(=O)NC1OC(=O)C(Cl)=C1Cl (stereo not given),–,inactive
Cc1cc(=O)[nH]c2nnnn12,–,"inconclusive [inhibitor, partial curve, poor fit]"
c1ccc(CC2CCN(C(c3cccs3)c3nnnn3C3CCCC3)CC2)cc1 (stereo not given),–,"inconclusive [inhibitor, single point]"
Cc1cccc2cc(C#N)c(NCc3ccccc3)nc12,–,inactive
Nc1c(S(=O)(=O)c2cccs2)c2nc3ccccc3nc2n1CCc1ccccc1,–,"inconclusive [activator, partial curve]"
O=C1CN(Cc2ccccc2)C(=NCc2ccco2)S1,–,"inconclusive [inhibitor, full curve]"
COc1ccc(CCNC(=O)CCC(=O)N2CCN(S(=O)(=O)c3ccccc3)CC2)cc1OC,–,"inconclusive [inhibitor, partial curve]"
Nc1c(Cl)cc(Cl)cc1C(=O)OCC(=O)N1CCOCC1,–,"inconclusive [activator, partial curve]"
CN(CC(=O)Nc1ccc(Cl)cc1)c1ccc(S(=O)(=O)N2CCCCC2)cc1[N+](=O)[O-],–,"inconclusive [inhibitor, partial curve, poor fit]"
COc1cc(S(=O)(=O)n2nnc3ccccc32)c(OC)cc1Cl,–,"inconclusive [inhibitor, single point]"
COc1ccc(-c2cc(C#N)nc(N3CCNCC3)n2)cc1,–,"inconclusive [inhibitor, single point]"
N#C/C(=C\c1cn(Cc2ccccc2C#N)c2ccccc12)C(=O)NCc1cccs1,inconclusive: -21.1% [inhibitor],–

Structure (SMILES),"activity change, negative = inhibition",Potency
COc1ccccc1CN1C(=O)CN(C2CCCCCC2)C(=O)C1c1ccc(F)cc1 (stereo not given),–,"inconclusive [inhibitor, full curve, poor fit]"
CCCN(CCC)C(=S)NC(=O)c1ccc(-c2ccccc2)cc1,–,"inconclusive [inhibitor, full curve]"
C=CCc1c(C)nc(-c2ccccc2)nc1N/N=C/c1ccccc1,–,inactive
Nc1ccc(-c2nc3ccc(N)cc3[nH]2)cc1,–,"inconclusive [activator, partial curve]"
Cc1cc(C)nc(SCc2cc(=O)c(OC(=O)c3ccc(Br)o3)co2)n1,–,"inconclusive [inhibitor, single point]"
COc1ccccc1N1CCN(S(=O)(=O)c2cc(C)sc2C)CC1,–,"inconclusive [inhibitor, single point]"
CCOc1ccccc1N(CC(=O)N1CCCCCC1)S(C)(=O)=O,–,"inconclusive [inhibitor, full curve, poor fit]"
O=c1oc2c(CN3CCOCC3)c(O)ccc2c2c1CCC2,–,"inconclusive [activator, partial curve]"
Cc1cccc(-n2c(=O)c3c(n4cnnc24)-c2ccccc2CC32CCCCC2)c1,–,"inconclusive [inhibitor, single point]"
N#CCSc1nc(Nc2ccc3c(c2)OCO3)c2ccccc2n1,–,"inconclusive [inhibitor, single point]"
CCOc1cccc(/C=N/NC(=S)Nc2ccccc2[N+](=O)[O-])c1O,–,inactive
OCC[C@H]1C[C@H](O)[C@@H](O)[C@@]2(CCCCO2)O1,–,"inconclusive [inhibitor, single point]"
CCn1c(=O)c2c(n3c(=S)[nH]nc13)-c1ccccc1CC21CCCCC1,–,"inconclusive [inhibitor, single point]"
CCc1ccc(C(=O)/C=C/Nc2ccc(S(=O)(=O)Nc3onc(C)c3C)cc2)cc1,–,"inconclusive [inhibitor, full curve]"
Cc1cc(/C=N/O)c(C)n1-c1cccc(Cl)c1,–,"inconclusive [inhibitor, full curve]"
COC(=O)C1=C(C)N(c2ccc(C)c(C)c2)/C(=C/c2ccc(O)cc2)C1=O,–,"inconclusive [inhibitor, single point]"
Cn1c(C(=O)NCc2ccccn2)cc2c(=O)n3ccccc3nc21,–,"inconclusive [activator, partial curve]"
COc1ccc(N2CCN(c3nc(NCCc4ccc(OC)c(OC)c4)nc(OC)n3)CC2)cc1,–,"inconclusive [inhibitor, single point]"
CC(=O)NC(=S)Nc1ccc(NC(=O)COc2ccc(Cl)cc2)cc1,–,"inconclusive [inhibitor, full curve]"
Cc1ccc(Oc2ccc3c(c2)C(=O)N(c2cccc4cccnc24)C3=O)cc1,–,"inconclusive [inhibitor, single point]"
COc1ccc(C2CC(c3ccccc3)=NN2c2ccc(Cl)c(C(=O)O)c2)cc1 (stereo not given),–,"inconclusive [activator, partial curve]"
